How the values were obtained:
[1] = molecular target: T1, human PD-1-mFc-Biotin (human, UniProt Q15116 partial chain, limits assumed, biotin label (site not stated)); experiment: competitive ELISA, blocking of PD-1-mFc-Biotin binding to coated human PDL1-mFc
T1 construct: not shown: mouse IgG Fc (mFc)
Description: After incubation, the ELISA plate was blocked with a PBS solution containing 1% BSA at 37° C. for 2 h. After blocking, the plate was washed three times and dried. The antibody was serially diluted on a dilution plate in a 3-fold dilution ratio to achieve 7 concentrations with 80 nM as the starting concentration (at a final concentration of 40 nM), and a blank control was set. […] Then the mixture was incubated at room temperature for 10 min. Then the mixture after reaction was added to the coated ELISA plate, and the ELISA plate was incubated at 37° C. for 30 min. After incubation, the plate was washed three times with PBST and dried. An SA-HRP (KPL, 14-30-00) working solution was added, and the plate was incubated at 37° C. for 30 min. After incubation, the plate was washed four times and dried. Then TMB (Neogen, 308177) was added in the dark for chromogenesis for 5 min, and then a stop solution was added to terminate the chromogenic reaction. The ELISA plate was put into an ELISA plate reader immediately, and the OD value of each well in the ELISA plate was read at 450 nm. The data were analyzed and processed by SoftMax Pro 6.2.1.

[2] = molecular target: T2, LAG3 on 293T-LAG3 membrane surface (full-length human LAG3 on cells) (human, UniProt P18627 23-525); experiment: flow cytometry on 293T-LAG3 cells
T2 construct: whole, on cells; also called CHO-K1-LAG3 cells
T2 sequence (looked up): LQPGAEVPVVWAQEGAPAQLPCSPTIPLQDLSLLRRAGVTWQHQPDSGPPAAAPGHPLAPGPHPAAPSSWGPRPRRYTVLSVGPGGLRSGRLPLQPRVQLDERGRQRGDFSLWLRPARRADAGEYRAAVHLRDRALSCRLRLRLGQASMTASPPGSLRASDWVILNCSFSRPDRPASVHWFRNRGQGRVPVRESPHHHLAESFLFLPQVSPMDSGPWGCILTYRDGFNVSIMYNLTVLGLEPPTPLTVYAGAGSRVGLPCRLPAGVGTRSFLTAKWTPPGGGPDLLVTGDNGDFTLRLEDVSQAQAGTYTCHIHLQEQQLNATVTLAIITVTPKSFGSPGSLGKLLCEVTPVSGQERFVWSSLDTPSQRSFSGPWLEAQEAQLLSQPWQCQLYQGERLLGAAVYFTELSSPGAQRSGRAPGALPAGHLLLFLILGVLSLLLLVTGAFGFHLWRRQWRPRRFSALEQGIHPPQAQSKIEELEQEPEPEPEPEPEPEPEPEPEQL
Description: 100 μL of 1% PBSA was then added to each well, and the mixture was centrifuged at 350×g for 5 min, followed by removal of the supernatant. […] 100 μL of 1% PBSA was added to each well, and the mixture was centrifuged at 350×g for 5 min, followed by removal of the supernatant. Then the plate was washed twice with 200 μL of 1% PBSA. […] The mixture was mixed well and then incubated on ice in the dark for 0.5 h. […] Then the plate was washed twice with 200 μL of 1% PBSA.

[3] = molecular target: T3, PD-1 on 293T-PD1 membrane surface (full-length human PD-1 on cells) (human, UniProt Q15116 25-288); experiment: cell-based or functional assay
[4] = molecular target: T4, FcγRI (UniProt P12314 16-288, limits assumed); experiment: BLI (Fortebio Octet), FcγRI on HIS1K sensor, antibody in solution
T4 construct: Bought protein; construct not described; also called CD64
Description: (§1) The data were analyzed by 1:1 model fitting to obtain affinity constants.

[5] = molecular target: T3, PD-1 on 293T-PD1 membrane surface …; experiment: flow cytometry on 293T-PD1 cells
Description: 100 μL of 1% PBSA was then added to each well, and the mixture was centrifuged at 350×g for 5 min, followed by removal of the supernatant. […] The mixture was mixed gently and uniformly, and then incubated on ice for 1 h. 100 μL of 1% PBSA was added to each well, and the mixture was centrifuged at 350×g for 5 min, followed by removal of the supernatant. Then the plate was washed twice with 200 μL of 1% PBSA. […] The mixture was mixed well and then incubated on ice in the dark for 0.5 h. 100 μL of 1% PBSA was added to each well, and the mixture was centrifuged at 350×g for 5 min, followed by removal of the supernatant. Then the plate was washed twice with 200 μL of 1% PBSA. 400 μL of 1% PBSA was added to each well to resuspend the cell pellets, and the mixture was transferred to a flow cytometry tube for FACSCalibur assay.

[6] = molecular target: T5, C1q (UniProt P02745; P02746; P02747); experiment: BLI (Fortebio Octet), antibody on FAB2G sensor, C1q in solution
T5 construct: the three subunits are from general knowledge; also called serum complement C1q
Description: The data were analyzed by 1:1 model fitting to obtain affinity constants. The data acquisition software was Fortebio Data Acquisition 7.0, and the data analysis software was Fortebio Data Analysis 7.0.

[7] = molecular target: T2, LAG3 on 293T-LAG3 membrane surface …; experiment: cell-based or functional assay
[8] = molecular target: T3, PD-1 on 293T-PD1 membrane surface …; experiment: cell-based or functional assay; remark: listed apart in the source
[9] = molecular target: T2, LAG3 on 293T-LAG3 membrane surface …; experiment: cell-based or functional assay; remark: listed apart in the source
[10] = molecular target: T6, FcγRIIb (UniProt P31994 43-217, limits assumed); experiment: BLI (Fortebio Octet), FcγRIIb on NTA sensor, antibody in solution
T6 construct: Construct not described; his tag by its printed name; also called CD32b; hFCGR2B-his
T6 sequence (looked up): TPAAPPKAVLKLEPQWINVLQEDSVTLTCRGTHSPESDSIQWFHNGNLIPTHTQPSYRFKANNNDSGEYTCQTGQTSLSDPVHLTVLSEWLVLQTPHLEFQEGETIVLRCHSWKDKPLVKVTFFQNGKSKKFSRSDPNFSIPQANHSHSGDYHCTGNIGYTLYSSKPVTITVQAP
Description: as §1

Sequence of C1q (P02745 23-245 limits assumed, chain 1 of 3): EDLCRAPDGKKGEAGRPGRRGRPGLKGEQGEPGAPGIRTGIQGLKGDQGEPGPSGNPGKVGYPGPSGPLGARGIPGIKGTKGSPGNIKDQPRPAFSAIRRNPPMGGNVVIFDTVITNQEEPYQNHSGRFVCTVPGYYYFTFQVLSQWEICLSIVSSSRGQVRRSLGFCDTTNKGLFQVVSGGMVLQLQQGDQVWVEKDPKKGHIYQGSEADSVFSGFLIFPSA
Sequence of C1q (P02746 28-253 limits assumed, chain 2 of 3, further chain): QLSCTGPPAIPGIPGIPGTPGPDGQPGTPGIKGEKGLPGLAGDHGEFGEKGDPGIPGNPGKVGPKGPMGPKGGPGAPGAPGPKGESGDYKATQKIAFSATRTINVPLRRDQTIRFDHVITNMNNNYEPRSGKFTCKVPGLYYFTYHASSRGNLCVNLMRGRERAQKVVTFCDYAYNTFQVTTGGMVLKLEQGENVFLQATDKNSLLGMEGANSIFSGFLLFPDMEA
Sequence of C1q (P02747 29-245 limits assumed, chain 3 of 3, further chain): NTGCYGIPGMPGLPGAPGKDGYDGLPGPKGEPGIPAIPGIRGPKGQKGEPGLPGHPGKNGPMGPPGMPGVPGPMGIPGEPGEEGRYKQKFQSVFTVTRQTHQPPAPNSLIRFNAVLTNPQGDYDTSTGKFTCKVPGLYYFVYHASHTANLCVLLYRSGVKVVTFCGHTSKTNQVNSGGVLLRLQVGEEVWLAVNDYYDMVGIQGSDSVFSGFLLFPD
Sequence of FcγRI (P12314 16-288 limits assumed): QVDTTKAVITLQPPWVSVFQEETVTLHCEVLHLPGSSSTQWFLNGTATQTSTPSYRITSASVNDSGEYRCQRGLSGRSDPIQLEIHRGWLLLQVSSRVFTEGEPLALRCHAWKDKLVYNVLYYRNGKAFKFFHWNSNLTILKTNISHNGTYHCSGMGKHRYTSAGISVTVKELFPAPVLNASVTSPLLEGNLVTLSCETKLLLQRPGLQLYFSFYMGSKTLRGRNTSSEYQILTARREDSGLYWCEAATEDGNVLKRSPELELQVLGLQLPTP

B1: BS-PL022B (bispecific antibody, human IgG1, kappa)
heavy: QVQLQQWGAGLLKPSETLSLTCAVYGGSISDYYWNWIRQPPGKGLEWIGEINHRGTTNSNPSLKSRVTLSLDTSKNQFSLKLRSVTAADTAVYYCAFGYSDYEYDWFDPWGQGTLVTVSSASTKGPSVFPLAPSSKSTSGGTAALGCLVKDYFPEPVTVSWNSGALTSGVHTFPAVLQSSGLYSLSSVVTVPSSSLGTQTYICNVNHKPSNTKVDKKV[skipping human IgG1 Fc with L234A L235A G237A (EU numbers)]GGGGSGGGGSGGGGSGGGGSEVQLVESGGGLVQPGGSLRLSCAASGFAFSSYDMSWVRQAPGKGLDWVATISGGGRYTYYPDSVKGRFTISRDNSKNNLYLQMNSLRAEDTALYYCANRYGEAWFAYWGQGTLVTVSSGGGGSGGGGSGGGGSGGGGSDIQMTQSPSSMSASVGDRVTFTCRASQDINTYLSWFQQKPGKSPKTLIYRANRLVSGVPSRFSGSGSGQDYTLTISSLQPEDMATYYCLQYDEFPLTFGAGTKLELKR
light: EIVLTQSPATLSLSPGERATLSCRASQTISSYLAWYQQKPGQAPRLLIYDASNRATGIPARFSGSGSGTDFTLTISSLEPEDFAVYYCQQRSNWPITFGQGTNLEIKRTVAAPSVFIFPPSDEQLKSGTASVVCLLNNFYPREAKVQWKVDNALQSGNSQESVTEQDSKDSTYSLSSTLTLSKADYEKHKVYACEVTHQGLSSPVTKSFNRGEC
notes: Morrison form (IgG-scFv): an scFv at the C-terminus of each of the two heavy chains
Q: Which EC50 [1] does the source give for B1 here?
A: The EC50 was 3.46 nM.

Q: And the EC50 [2]?
A: Its EC50 is 3.21 nM.

Q: What about the “EC50 (nM), luciferase reporter (RLU), PD1 effector cells + PDL1 aAPC/CHO-K1 cells” value [3] of the same binder?
A: Its value is 20 nM.

Q: Does B1 bind [4]?
A: Result: no binding

Q: And the EC50 [5]?
A: Its EC50 is 6.07 nM.

Q: Does B1 bind [6]?
A: Result: no binding

Q: And the “EC50 (nM), luciferase reporter (RLU), Jurkat-NFAT-PD1-LAG3 cells + SEE-treated Raji cells” value [7]?
A: The value was 0.976 nM.

Q: And the “EC50 (nM), luciferase reporter (RLU), Jurkat-NFAT-PD1-LAG3 cells + SEE-treated Raji-PDL1 cells” value [8]?
A: Its value is 16.2 nM.

Q: What about the “EC50 (nM), luciferase reporter (RLU), Jurkat-NFAT-PD1-LAG3 cells + SEE-treated Raji-PDL1 cells” value [9] of the same binder?
A: The value was 16.2 nM.

Q: Does B1 bind [10]?
A: Result: no binding

From patent publication US20240392040A1 (AKESO HUIKE SHANGHAI, published 2024)
